# Results taken from the supplement of paper PMC12217912.
# This is one part of the list. The full chains were built here from the parent and the listed change. Values near 0.05 are background.
# B1: TEV protease; numbered along this chain (parent)
# chain: MGESLFKGPRDYNPISSSICHLTNESDGHTTSLYGIGFGPFIITNKHLFRRNNGTLVVQSLHGVFKVKDTTTLQQHLVDGRDMIIIRMPKDFPPFPQKLKFREPQREERICLVTTNFQTKSMSSMVSDTSCTFPSGDGIFWKHWIQTKDGQCGSPLVSTRDGFIVGIHSASNFTNTNNYFTSVPKNFMELLTNQEAQQWVSGWRLNADSVLWGGHKVFMVKPEEPFQPVKEATQL
# Variants of: B1
# Assay: raw area under fraction-flipped curve 0-4 h after induction (AUC4h, not background-subtracted), DNA-recorder readout of cleavage of the substrate (dimensionless); higher = more cleavage of the substrate by the protease variant
# Conditions: temperature: 34 °C; time window: 0-4 h after rhamnose induction
# 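Note: Bxb1 expression induced with 0.2% (w/v) L-rhamnose at OD600 near 0.5, cultures sampled hourly, flipped fraction per protease–substrate barcode pair counted by paired-end Illumina sequencing.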
Variant,area with substrate ENLYFQC,area with substrate ENLYFQD,area with substrate ENLYFQH,area with substrate ENLYFQL,area with substrate ENLYFQM,area with substrate ENLYFQN,area with substrate ENLYFQS,area with substrate ENLYFQT,area with substrate ENLYFQW,area with substrate ENLYFQG
MGESLFKGPRDYNPISSSICHLTNESDGHTTSLYGIGFGPFIITNKHLFRRNNGTLVVQSLHGVFKVKDTTTLQQHLVDGRDMIIIRMPKDFPPFPQKLKFREPQREERICLVTTNFQTKSMSSMVSDTSCTFPSGDGIFWKHWIQTKDGQCGSPLVSTRDGFIVGIHSASNFTNTNNYFTSVPKNFMELLTNQEAQQWVSGWRLNADSVLWGGHKVFMVKPEEPFQPVKEAYQL [T233Y],0.103,0.0721,0.0694,0.0549,0.0844,0.0536,0.0897,0.0753,0.0684,
MGESLFKGPRDYNPISSSICHLTNESDGHTTSLYGIGFGPFIITNKHLFRRNNGTLVVQSLHGVFKVKDTTTLQQHLVDGRDMIIIRMPKDFPPFPQKLKFREPQREERICLVTTNFQTKSMSSMVSDTSCTFPSGDGIFWKHWIQTKDGQCGSPLVSTRDGFIVGIHSASNFTNTNNYFTSVPKNFMELLTNQEAQQWVSGWRLNADSVLWGGHKVFMVKPEEPFQPVKEATQF [L235F],0.145,0.0865,,,,,0.0981,0.0699,,0.0743
MGESLFKGPRDYNPISSSICHLTNESDGHTTSLYGIGFGPFIITNKHLFRRNNGTLVVQSLHGVFKVKDTTTLQQHLVDGRDMIIIRMPKDFPPFPQKLKFREPQREERICLVTTNFQTKSMSSMVSDTSCTFPSGDGIFWKHWIQTKDGQCGSPLVSTRDGFIVGIHSASNFTNTNNYFTSVPKNFMELLTNQEAQQWVSGWRLNADSVLWGGHKVFMVKPEEPFQPVKEATQP [L235P],0.118,0.0706,,0.0641,0.118,,0.112,0.0563,0.0628,0.128
MKESLFKGPRDYNPISSSICHLTNESDGHTTSLYGIGFGPFIITNKHLFRRNNGTLVVQSLHGVFKVKDTTTLQQHLVDGRDMIIIRMPKDFPPFPQKLKFREPQREERICLVTTNFQTKSMSSMVSDTSCTFPSGDGIFWKHWIQTKDGQCGSPLVSTRDGFIVGIHSASNFTNTNNYFTSVPKNFMELLTNQEAQQWVSGWRLNADSVLWGGHKVFMVKPEEPFQPVKEATQL [G2K],,0.0541,,,,0.109,0.134,0.0684,,0.136
MGASLFKGPRDYNPISSSICHLTNESDGHTTSLYGIGFGPFIITNKHLFRRNNGTLVVQSLHGVFKVKDTTTLQQHLVDGRDMIIIRMPKDFPPFPQKLKFREPQREERICLVTTNFQTKSMSSMVSDTSCTFPSGDGIFWKHWIQTKDGQCGSPLVSTRDGFIVGIHSASNFTNTNNYFTSVPKNFMELLTNQEAQQWVSGWRLNADSVLWGGHKVFMVKPEEPFQPVKEATQL [E3A],,0.094,0.077,,,,0.104,,0.0625,
MGESLFKGPRDYNPISSSICHLTNESDGHTTSLYGIGFGPFIITNKHLFRRNNGTLVVQSLHGVFAVKDTTTLQQHLVDGRDMIIIRMPKDFPPFPQKLKFREPQREERICLVTTNFQTKSMSSMVSDTSCTFPSGDGIFWKHWIQTKDGQCGSPLVSTRDGFIVGIHSASNFTNTNNYFTSVPKNFMELLTNQEAQQWVSGWRLNADSVLWGGHKVFMVKPEEPFQPVKEATQL [K66A],,0.0642,,,0.127,0.0685,0.11,,,
MGESLFKGPRDYNPISSSICHLTNESDGHTTSLYGIGFGPFIITNKHLFRRNNGTLVVQSLHGVFKVKDTTTLQMHLVDGRDMIIIRMPKDFPPFPQKLKFREPQREERICLVTTNFQTKSMSSMVSDTSCTFPSGDGIFWKHWIQTKDGQCGSPLVSTRDGFIVGIHSASNFTNTNNYFTSVPKNFMELLTNQEAQQWVSGWRLNADSVLWGGHKVFMVKPEEPFQPVKEATQL [Q75M],,0.0737,0.1,,,,0.112,0.0564,0.0561,
MGESLFKGPRDYNPISSSICHLTNESDGHTTSLYGIGFGPFIITNKHLFRRNNGTLVVQSLHGVFKVKDTTTLQQHLIDGRDMIIIRMPKDFPPFPQKLKFREPQREERICLVTTNFQTKSMSSMVSDTSCTFPSGDGIFWKHWIQTKDGQCGSPLVSTRDGFIVGIHSASNFTNTNNYFTSVPKNFMELLTNQEAQQWVSGWRLNADSVLWGGHKVFMVKPEEPFQPVKEATQL [V78I],,0.0599,0.087,0.0293,,0.119,0.107,,0.0705,
MGESLFKGPRDYNPISSSICHLTNESDGHTTSLYGIGFGPFIITNKHLFRRNNGTLVVQSLHGVFKVKDTTTLQQHLVQGRDMIIIRMPKDFPPFPQKLKFREPQREERICLVTTNFQTKSMSSMVSDTSCTFPSGDGIFWKHWIQTKDGQCGSPLVSTRDGFIVGIHSASNFTNTNNYFTSVPKNFMELLTNQEAQQWVSGWRLNADSVLWGGHKVFMVKPEEPFQPVKEATQL [D79Q],,0.0752,,,0.0823,,0.0982,,,
MGESLFKGPRDYNPISSSICHLTNESDGHTTSLYGIGFGPFIITNKHLFRRNNGTLVVQSLHGVFKVKDTTTLQQHLVDGRMMIIIRMPKDFPPFPQKLKFREPQREERICLVTTNFQTKSMSSMVSDTSCTFPSGDGIFWKHWIQTKDGQCGSPLVSTRDGFIVGIHSASNFTNTNNYFTSVPKNFMELLTNQEAQQWVSGWRLNADSVLWGGHKVFMVKPEEPFQPVKEATQL [D82M],,0.0824,,,,0.0539,0.0526,,0.0513,

# Same assay, conditions: temperature: 34 °C; time window: 0-4 h after rhamnose induction
Variant,area with substrate ENLYFQK,area with substrate ENLYFQP,area with substrate ENLYFQF,area with substrate ENLYFQI,area with substrate ENLYFQR,area with substrate ENLYFQV,area with substrate ENLYFQY
MGESLFKGPRDYNPISSSICHLTNESDGHTTSLYGIGFGPFIITNKHLFRRNNGTLVVQSLHGVFKVKDTTTLQQHLVDGRDMIIIRMPKDFPPFPQKLKFREPQREERICLVTTNFQTKSMSSMVSDTSCTFPSGDGIFWKHWIQTKDGQCGSPLVSTRDGFIVGIHSASNFTNTNNYFTSVPKNFMELLTNQEAQQWVSGWRLNADSVLWGGHKVFMVKPEEPFQPVKEATQF [L235F],0.0464,0.0476,,,,,
MGESLFKGPRDYNPISSSICHLTNESDGHTTSLYGIGFGPFIITNKHLFRRNNGTLVVQSLHGVFKVKDTTTLQQHLVDGRDMIIIRMPKDFPPFPQKLKFREPQREERICLVTTNFQTKSMSSMVSDTSCTFPSGDGIFWKHWIQTKDGQCGSPLVSTRDGFIVGIHSASNFTNTNNYFTSVPKNFMELLTNQEAQQWVSGWRLNADSVLWGGHKVFMVKPEEPFQPVKEATQP [L235P],,,0.087,0.0398,,,
MKESLFKGPRDYNPISSSICHLTNESDGHTTSLYGIGFGPFIITNKHLFRRNNGTLVVQSLHGVFKVKDTTTLQQHLVDGRDMIIIRMPKDFPPFPQKLKFREPQREERICLVTTNFQTKSMSSMVSDTSCTFPSGDGIFWKHWIQTKDGQCGSPLVSTRDGFIVGIHSASNFTNTNNYFTSVPKNFMELLTNQEAQQWVSGWRLNADSVLWGGHKVFMVKPEEPFQPVKEATQL [G2K],,,,0.0784,0.0709,,
MGASLFKGPRDYNPISSSICHLTNESDGHTTSLYGIGFGPFIITNKHLFRRNNGTLVVQSLHGVFKVKDTTTLQQHLVDGRDMIIIRMPKDFPPFPQKLKFREPQREERICLVTTNFQTKSMSSMVSDTSCTFPSGDGIFWKHWIQTKDGQCGSPLVSTRDGFIVGIHSASNFTNTNNYFTSVPKNFMELLTNQEAQQWVSGWRLNADSVLWGGHKVFMVKPEEPFQPVKEATQL [E3A],,,,,0.0587,0.0481,0.0622
MGESLFKGPRDYNPISSSICHLTNESDGHTTSLYGIGFGPFIITNKHLFRRNNGTLVVQSLHGVFAVKDTTTLQQHLVDGRDMIIIRMPKDFPPFPQKLKFREPQREERICLVTTNFQTKSMSSMVSDTSCTFPSGDGIFWKHWIQTKDGQCGSPLVSTRDGFIVGIHSASNFTNTNNYFTSVPKNFMELLTNQEAQQWVSGWRLNADSVLWGGHKVFMVKPEEPFQPVKEATQL [K66A],,,,,0.0555,,
MGESLFKGPRDYNPISSSICHLTNESDGHTTSLYGIGFGPFIITNKHLFRRNNGTLVVQSLHGVFKVKDTTTLQMHLVDGRDMIIIRMPKDFPPFPQKLKFREPQREERICLVTTNFQTKSMSSMVSDTSCTFPSGDGIFWKHWIQTKDGQCGSPLVSTRDGFIVGIHSASNFTNTNNYFTSVPKNFMELLTNQEAQQWVSGWRLNADSVLWGGHKVFMVKPEEPFQPVKEATQL [Q75M],0.0668,0.0583,0.0605,,0.0543,,
MGESLFKGPRDYNPISSSICHLTNESDGHTTSLYGIGFGPFIITNKHLFRRNNGTLVVQSLHGVFKVKDTTTLQQHLIDGRDMIIIRMPKDFPPFPQKLKFREPQREERICLVTTNFQTKSMSSMVSDTSCTFPSGDGIFWKHWIQTKDGQCGSPLVSTRDGFIVGIHSASNFTNTNNYFTSVPKNFMELLTNQEAQQWVSGWRLNADSVLWGGHKVFMVKPEEPFQPVKEATQL [V78I],0.0706,,,,,,
MGESLFKGPRDYNPISSSICHLTNESDGHTTSLYGIGFGPFIITNKHLFRRNNGTLVVQSLHGVFKVKDTTTLQQHLVQGRDMIIIRMPKDFPPFPQKLKFREPQREERICLVTTNFQTKSMSSMVSDTSCTFPSGDGIFWKHWIQTKDGQCGSPLVSTRDGFIVGIHSASNFTNTNNYFTSVPKNFMELLTNQEAQQWVSGWRLNADSVLWGGHKVFMVKPEEPFQPVKEATQL [D79Q],0.0638,,,0.0487,,0.039,
MGESLFKGPRDYNPISSSICHLTNESDGHTTSLYGIGFGPFIITNKHLFRRNNGTLVVQSLHGVFKVKDTTTLQQHLVDGRMMIIIRMPKDFPPFPQKLKFREPQREERICLVTTNFQTKSMSSMVSDTSCTFPSGDGIFWKHWIQTKDGQCGSPLVSTRDGFIVGIHSASNFTNTNNYFTSVPKNFMELLTNQEAQQWVSGWRLNADSVLWGGHKVFMVKPEEPFQPVKEATQL [D82M],,,,0.0406,0.0594,0.0544,0.0493
